Data from the supplement of paper PMC11417369.
± gives the standard deviation of the averaged measurements. This is one part of the list.

System: PfAP2-G AP2 domain (GST-tagged)
Test: gcPBM binding intensity (ln(normalized median fluorescence intensity)); higher = stronger DNA binding
Method in brief: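 An Agilent 4 × 180k array of primer-extended double-stranded 36-bp intergenic genomic probes, with negative controls, was incubated for 1 h with GST-tagged P. falciparum DNA-binding domains expressed in E. coli. Alexa488 anti-GST antibody detected bound protein, scanned at 488 nm. Binding intensity is the highest Masliner-normalised natural-log median intensity across replicate spots of either probe orientation.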

Sequence | gcPBM binding intensity (ln)
GTGTGAAGATATAAATGCATTTTTTTATACATTTTC [CACACA_negctrl_site117] | 9.59 ± 0.23
ATATATATATATAGGAGTACATGAAATACTTAAAAA [XGTACX_site8851] | 11.5 ± 0.93
AATATTATATAATAAAGTACATATATATTCATATTT [XGTACX_site7204] | 11 ± 0.69
TGTAAGTATTCTTGAGGTACACATATAAATATAGTA [XGTACX_site3207] | 11.4 ± 0.79
ATTATATATACAACAAGTACAAAAGAAAAATATTAT [XGTACX_site2914] | 11.2 ± 0.52
TTTGTAAAAGGTCATACACACATATTCAAAAGAAGT [CACACA_site2947] | 10.4 ± 0.22
GACATTAATTATTTGACACACGACTGGGTGGTGATT [CACACA_site306] | 10.09 ± 0.021
TGATTCAATTTATGCACACTAAAAATTAATTATATT [CACACA_site271] | 10.1 ± 0.13
TTTTTTTTTTATACATGTACTTAAAAGTAGCACCTT [XGTACX_site1855] | 11.2 ± 0.8
TATAAATACATCCTATACTTCTCTTTTACAGTTTTA [CACACA_negctrl_site1283] | 9.89 ± 0.29
ATATTGTTATATGTTTGTACATATTTTTTATATTTT [XGTACX_site6834] | 11 ± 0.7
AATGTTAAAAATGAAAGTACATGGAATTTATTATTT [XGTACX_site4095] | 11 ± 0.56
ATATATATATATAATTGTACATTTTTAACCTTAACA [XGTACX_site7910] | 10.8 ± 0.54
TTTTATGTTTTTTTTATAAATATTAAAATTCTATAT [CACACA_negctrl_site1477] | 9.62 ± 0.028
GTTTATATATGCTTATAATTTTCAATTGTTTTACAA [TGCATGCA_negctrl_site384] | 9.805 ± 0.007
AAAAAAAAAAAATACACACACACATATAAATATGTA [CACACA_site6900] | 9.665 ± 0.092
TATTTTTGAAGTTGCACACACAAAAATAAAAAGTAT [CACACA_site418] | 10.3 ± 0.35
TACAAACAATTAAACAAACACACATATACATGTATA [CACACA_site2061] | 9.75 ± 0.18
GGTATTTATGGACGCGTGCACACACATATGAACAAA | 11.4 ± 0.85
TTTTGATTTTTTTATTGTACCCATAAACATATAATT [XGTACX_site5202] | 11.5 ± 0.99
AGCTATTAATTTATTACATGCAAGATTAAAAGACTA [TGCATGCA_site281] | 9.62 ± 0.085
ATATTTACTCACGTCTTGCACTGAGCAAGCATTATA | 10.1 ± 0.11

Sequence | gcPBM binding intensity (ln)
TCATGTTTTTAATATTGTACTCTCATTTTATATATC [XGTACX_site8412] | 11.2 ± 0.98
ATTCATACATGCACACGTACATATTTAAATATAAAA [XGTACX_site8388] | 11.4 ± 0.72
AAAAAAAAAAAAAAATCACACATTGGTTAAATATTA [CACACA_site5344] | 9.865 ± 0.007
CTATCAAATAATAGCAAACACACAAAAAATAAAAAA [CACACA_site4147] | 9.96 ± 0.18
AAAAAAAAAAGACACACACACACACGGACACATACA [CACACA_site7363] | 11.2 ± 0.57
ATTTTTTATGAAAACATAAAAAAATGAGATAACCAT [CACACA_negctrl_site894] | 10.2 ± 0.28
TATTTATACATACGTACACACAAATATTAAAATATA [CACACA_site7004] | 11.5 ± 0.96
TAATTGATTCTTCACCGTACTCACACATATATATAT [XGTACX_site6530] | 11 ± 0.59
ATTTTTTTTTTTTGTACATACCACATATACAAAACA [CACACA_negctrl_site1240] | 11.1 ± 0.67
TTTTTTTTTTTCTCCATACACACTTGATAAAACTTT [CACACA_site615] | 10.1 ± 0.33
ACTACGAGTCGTAGAGTGCAGTCTGGAGAAAAGTAC [GTGCAC_site9769] | 10.7 ± 0.48
ATCAAGCACGAACACACACACACACGCACGCCCACA [CACACA_site6308] | 10.8 ± 0.61
ATATATTATAAATGTAGTACCGTTACATAGTCATAG [XGTACX_site390] | 11.2 ± 0.76
CACACCACCAACAAAAGTACATACATATATATATAT [XGTACX_site5781] | 11.3 ± 0.82
TATATATTGCCCTTCACACACACACCCATATATATA [CACACA_site2493] | 10.3 ± 0.28
TTTTTAGTTAATTAAACACACAAAAAAAAAAATAAA [CACACA_site3930] | 9.915 ± 0.064
AATATTTTTATATATATACACACTTACATATATATA [CACACA_site3609] | 10.2 ± 0.39
ATAATATTGTGGTATACACACCTTACAAAAAGGTAC [CACACA_site5582] | 10.8 ± 0.45
AATATTTTGTTATTTATTTAATCTAATATTATGATA [GTGCAC_negctrl_site258] | 9.69
ATATAATAGAAGTGTACACACATATTTATGGGTGTA [CACACA_site5686] | 11.5 ± 0.91
TATATTTGGTTTCATTCATTTTTATAGAAATCTCAA [CACACA_negctrl_site1412] | 10.015 ± 0.007
TATTTTTTTACATATTGTACATAATATAAAACTTAC [XGTACX_site8273] | 11 ± 0.59
